Source: patent US20170296668A1, “METHODS OF INCREASING SOLUBILITY OF POORLY SOLUBLE COMPOUNDS AND METHODS OF MAKING AND USING FORMULATIONS OF SUCH COMPOUND” (VIZURI HEALTH SCIENCES LLC, priority 2009, published 2017)
In brackets after ≈: the same amount, converted by molar mass. Where two headings read alike, the source gives them in different places.

How the values were obtained:
[1] = 25° C., Li et al. 1997; cited from earlier work
[2] = Solubility of apigenin in propylene glycol and ethylene glycol; format: physicochemical; settings: for solubility: organic solvent or mixture, thermodynamic from solid
[3] = Supersaturation test by addition of a crystal; settings: Example 4, crystal addition
[4] = test system: skin cancer; settings: anti skin cancer activities; cited from earlier work
[5] = Solubility in Polysorbate 80 via thermal treatment process; settings: HPLC-MS
[6] = Aqueous solution clarity: water added to concentrate vs non-concentrate method

clarity, non-concentrate method (all ingredients with water heated to about 100° C.) ([6]; Nonoxynol-9) | clarity, non-concentrate method (all ingredients with water heated to about 100° C.) ([6]; PEG 400) | clarity after addition of 17 ml of water to the concentrate ([6]; PEG 400 concentrate) | clarity, non-concentrate method (all ingredients with water heated to about 100° C.) ([6]; PS80) | clarity after addition of 17 ml of water to the concentrate ([6]; PS80 concentrate, more than 50 hours) | clarity after addition of 17 ml of water to the concentrate ([6]; nonoxynol-9 concentrate, more than 50 hours) | SMILES | solubility in hydrophilic and lipophilic surfactants tested [1] [mg/mL] | behaviour upon cooling to room temperature ([2]; EG solution) | behaviour upon cooling to room temperature ([2]; PG solution) | solubility ([2]; ethylene glycol, heated to about 190° C., read-out: concentration completely solubilized in EG) [mg/mL] | solubility ([2]; propylene glycol, heated to about 175° C., read-out: concentration completely solubilized in PG) [mg/mL] | supersaturation of cooled nonionic surfactant liquid [3] | concentration at which apigenin acts effectively [4] [µM] | concentration of apigenin in A/PS80 [5] [%]
– | – | – | – | – | – | O=c1cc(-c2ccc(O)cc2)oc2cc(O)cc(O)c12 [Apigenin, 4′,5,7,-trihydroxyflavone] | 0.15 to 0.68 | appreciable apigenin precipitation | appreciable apigenin precipitation | 40 (≈ 148 mM) | 40 (≈ 148 mM) | not supersaturated | < 50 | 4.05
opaque cloudy solutions | opaque cloudy solutions | a cloudy opaque solution resulted | opaque cloudy solutions | remained clear | remained clear | CC(C)CCC[C@@H](C)[C@H]1CC[C@H]2[C@@H]3CC=C4C[C@@H](O)CC[C@]4(C)[C@H]3CC[C@]12C [Cholesterol] | – | – | – | – | – | – | – | –
